# Over roughly 33,000 sequences, “E-score (-0.5 to 0.5)” has its median near -0.017; the highest 2% begin near 0.3. Some of the results follow.
# Target: T1, Sut1 (UniProt P53032)
# T1 sequence: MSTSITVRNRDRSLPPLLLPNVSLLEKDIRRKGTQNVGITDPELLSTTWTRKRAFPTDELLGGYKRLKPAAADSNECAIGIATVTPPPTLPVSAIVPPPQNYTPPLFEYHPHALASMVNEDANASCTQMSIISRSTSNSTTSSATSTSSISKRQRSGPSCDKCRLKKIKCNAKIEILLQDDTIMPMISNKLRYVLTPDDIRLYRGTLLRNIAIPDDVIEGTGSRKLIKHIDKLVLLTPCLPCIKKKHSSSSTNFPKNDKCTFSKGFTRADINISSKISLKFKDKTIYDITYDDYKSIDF
# Test: PBM E-score (8-mer binding enrichment) (E-score (-0.5 to 0.5)); higher = stronger / more preferred TF binding; most listed sequences are background and not binding sites
# Settings: protein concentration: 200 nM; construct: GST-full length
# Method in brief: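 GST-tagged yeast TFs (full-length or DNA-binding domain) were made by PURExpress in vitro transcription/translation and applied at about 100-200 nM to universal all-10-mer Agilent arrays. The arrays were made double-stranded by primer extension, on fresh or once-stripped slides. Bound protein was detected with fluorescent anti-GST, and scans were normalised with masliner. Each ungapped eight-base word, pooled with its reverse complement, received an E-score (modified Wilcoxon-Mann-Whitney statistic) from the Universal PBM Analysis Suite.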
row,Sequence,PBM E-score
1,GTGGAAAA,0.0489
2,AGACCACG,-0.253
3,CAAAACCC,0.00381
4,AGTAGCAA,0.126
5,CACTCATC,0.0214
6,CCAGCGTC,-0.251
7,AGACCCAA,-0.179
8,CGCGCCAC,-0.0589
9,GGTGAGTA,-0.0662
10,AGCAGCGC,-0.247
11,AAGTAGGT,0.0109
12,GTGTAAAA,0.144
13,ATTTTAAA,0.307
14,ATGCGGGA,-0.0058
15,CTCCTATC,-0.0568
16,GGTCTATA,-0.106
17,AGTGGGCC,-0.32
18,GTTGGGCA,-0.252
19,CTTGCCAC,-0.176
20,AGTGCTTA,-0.0718
21,GGTATTGA,-0.0326
22,AATACACT,0.144
23,GCCTTTAC,-0.0182
24,CCAGGCAG,-0.155
25,CCCTGCCA,-0.16

row,Sequence,PBM E-score
1,AAATCGTT,0.179
2,ACAAATAG,0.113
3,CCCGTTTA,-0.00276
4,CACCCCAA,-0.0763
5,GACTATAC,0.0723
6,ACGTTTTA,0.213
7,TACCTTAA,-0.00986
8,CAGTCAGA,-0.0501
9,CCGTATAA,0.105
10,ACAGAGCT,-0.258
11,CCGGGGGC,-0.0384
12,ATTAAGAA,0.11
13,ACAGAGTA,-0.0728
14,GGGTACCA,-0.29
15,ATCGCCTA,-0.0867
16,ATCCAGAA,0.0104
17,GAGAAATA,0.134
18,AATAAGGC,0.0317
19,ATTCTCCC,-0.0729
20,GGACCTCC,0.138
21,CAGTCTGA,0.00085
22,GCATTAGC,-0.214
23,CGGTCGAA,0.0555
24,CTTTGAAC,0.0486
25,AAGTCAAG,-0.0946

row,Sequence,PBM E-score
1,CCATTCCG,0.149
2,ATGTTCTG,-0.0211
3,TCAAACAA,0.134
4,AGCGCAAC,-0.0476
5,CACTTCAC,-0.14
6,CGGATTGC,0.068
7,AATAGCCG,0.146
8,CATTGTTC,0.0786
9,GCTATTGA,-0.0458
10,AAAGTGCC,-0.127
11,CACGGATA,0.043
12,ACAGTGCA,0.121
13,ACTTCATA,0.101
14,CTGAGGTA,-0.0253
15,ACACATAT,0.0563
16,CACTAAGG,-0.146
17,GCGTGATA,-0.0567
18,CAATGACC,-0.0978
19,GCGTGTTA,-0.0336
20,CCCTAACG,0.0085
21,AAACCGAA,-0.00046
22,CCAAATTA,0.211
23,CCACTTTA,0.0316
24,CGAGTTTA,0.0867
25,AACTTTGC,0.124

row,Sequence,PBM E-score
1,GTTGCTTA,0.111
2,AACATCCG,0.147
3,ACCATCCG,-0.00169
4,ACTTTGCG,0.0957
5,ATGAGCAG,-0.076
6,TCAGCTGA,0.159
7,ATGCCGGG,-0.0609
8,CCTACACA,0.00672
9,ACCCATCG,-0.096
10,AATTATAC,0.308
11,AAAAGAGA,0.104
12,CGGATGAG,0.136
13,AGACAACG,0.081
14,ACGGTAGA,-0.0884
15,CCGAGGAA,0.163
16,ACGTGTCT,-0.19
17,CTAAGGCC,-0.21
18,CATGTAAG,0.0151
19,GCCTCGCA,-0.181
20,AATCCACT,0.0567
21,CACAAGTA,0.00295
22,AGAAGCAA,0.103
23,AGAGATCG,-0.0766
24,AACCGCTC,-0.096
25,AGGATTGG,-0.172

row,Sequence,PBM E-score
1,CCCAACCG,-0.216
2,ACAATACG,-0.0209
3,ACACACTG,-0.254
4,CGACTTCA,0.136
5,ACTTTTGA,0.18
6,ACCATCGC,-0.0993
7,GGAGAGTA,0.0165
8,TCTTAGAA,0.283
9,CACTTATA,0.0975
10,CCAGAGTA,-0.122
11,CTGCCAGC,-0.162
12,ACTGCAAG,-0.0394
13,GCGTATAA,-0.00837
14,GTAGACAA,0.157
15,CATATTCG,0.0408
16,AGTTTGTC,0.114
17,AAATCAAA,0.239
18,TGAACCAA,0.1
19,ACGGTATG,-0.0888
20,AGTTACCG,0.169
21,ATCGCTAC,-0.0624
22,ACATCAAG,0.0603
23,CTGATCCA,-0.111
24,ATCTATAG,0.11
25,GAGTGCTA,0.0199

row,Sequence,PBM E-score
1,CGCGCTCC,0.0421
2,GCGGGTCC,-0.14
3,CGTCCTTA,-0.176
4,GCTATTCC,-0.0308
5,AACAAGCC,-0.112
6,AAAGAGCG,0.153
7,GCCCCACA,-0.305
8,GAAGGAGC,-0.293
9,ACATCTGG,-0.0265
10,CCAGGGCG,-0.26
11,ATGCCTTG,-0.0663
12,GAATTGAC,0.0462
13,CTCCACGA,-0.0324
14,AATATAGG,0.179
15,CGTGGGAC,-0.0896
16,CTGGCTCA,-0.0837
17,TCGAACAA,0.102
18,ACCTCCTC,-0.197
19,CCGAAAGA,0.264
20,CTTGTGTA,0.0882
21,CCCTTCTC,-0.146
22,GAATCTCC,0.234
23,CGCATCGC,-0.172
24,CACCGGTG,0.0775
25,ATTGATGG,0.118

row,Sequence,PBM E-score
1,CGACGGAG,0.254
2,CCGTTCAC,-0.107
3,GAAGGTCA,-0.00746
4,CCTACGAA,-0.134
5,CAGCGCGG,-0.0683
6,ATCGTCGC,-0.183
7,ATCCTCCG,0.115
8,CGACACTC,0.0434
9,GACAATAA,0.107
10,CTAGTAAC,0.0682
11,CCTACTCC,0.278
12,GACCCGCA,-0.146
13,GCGCTCCA,-0.242
14,ACGTACTA,-0.0235
15,CGATTCTC,-0.00194
16,GAGGGGAA,-0.112
17,ATCAATGA,0.164
18,AGACCCCT,-0.317
19,GGCCCACC,-0.247
20,GGACTTGA,0.339
21,ACGGGCCC,-0.203
22,CGGACGAA,0.234

# Source: the supplement of paper PMC3334620
